# The whole screen tested about 420,000 compounds, of which about 64,000 (15%) were called active. The shares of active, inactive and inconclusive entries below differ from those in the screen. Calls come from the whole dose curve; as a rule, active = well fitted inhibition curve with a large enough effect; inconclusive = small, poorly fitted or top-dose-only effect; inactive = flat fitted curve, though single readings scatter. No potency is given beside an inconclusive call; the fits are too rough.
# Test: qHTS for Inhibitors of human tyrosyl-DNA phosphodiesterase 1 (TDP1): qHTS in cells in absence of CPT; note: nearly all actives have a fitted effect of over 55% in size
# Conditions: DT40 Tdp1-/- hTDP1 cells, no CPT, ATP luminescence, 48 h; series mostly up to 46.2 µM
# Method in brief: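 Chicken DT40 Tdp1-/- cells complemented with human TDP1, screened without camptothecin (DMSO vehicle only), 400 cells/well. Compounds pin-transferred, cells incubated at 37 °C for at least 48 hr. Growth read as ATP-dependent luminescence (CellTiter-Glo, 30 min at RT).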
# Potency is the fitted concentration of half-maximal effect; tags give direction and shape of the fitted curve.
row,SMILES,Potency
1,COc1cccc(CNC(=S)Nc2cccc(Cl)c2C)c1,"inconclusive [inhibitor, single point]"
2,COCc1cc(=O)n2[nH]c(-c3cccc(Br)c3)cc2n1,"inconclusive [inhibitor, single point]"
3,COC(=O)c1c(NC(=O)c2ccccc2)sc2c1CC(C)(C)OC2,"inconclusive [inhibitor, partial curve]"
4,Cc1cccc(NC(=O)c2sc3nc(-c4ccccc4)cn3c2C)c1C,"inconclusive [inhibitor, single point]"
5,O=C(Nc1cccs1)NC1CCCC1,inactive
6,COc1cc(/C=N/Nc2nc(C)cc(C)n2)ccc1O,inactive
7,COc1ccccc1N1C(=O)c2ccccc2NC1C(OC)OC (configuration not stated),inactive
8,C/C(CC(=O)Nc1cc(C)ccn1)=N\NC(=O)c1cccc(C)c1O,"inconclusive [inhibitor, single point]"
9,O=C(NC(=S)Nc1ccc2c(c1)OCCO2)c1cccc2ccccc12,"inconclusive [inhibitor, single point]"
10,CC(=O)Nc1ccc(NC(=O)C(C)Sc2nc3ccccc3c(=O)n2CC2CCCO2)cc1 (configuration not stated),"inconclusive [inhibitor, single point]"
11,Cc1ccnc(NC(=O)c2ccc(Cl)c(S(=O)(=O)N3CCCC3)c2)c1,"inconclusive [inhibitor, partial curve]"
12,O=C(CSc1n[nH]c(-c2ccccc2)n1)N1CCN(c2ccccc2F)CC1,"inconclusive [inhibitor, single point]"
13,COC(=O)N/N=C/c1ccc(OS(=O)(=O)c2ccc(C)cc2)c(OC)c1,"inconclusive [inhibitor, partial curve]"
14,O=C(COC(=O)c1ccco1)NCCc1ccc(Cl)cc1,inactive
15,O=C(NCc1cn(-c2ccccc2)nc1-c1ccccc1)c1cc([N+](=O)[O-])cc([N+](=O)[O-])c1,"inconclusive [inhibitor, partial curve, poor fit]"
16,O=C(NCCc1nc(-c2ccc(F)cc2)no1)c1ccc(F)cc1,"inconclusive [inhibitor, single point]"
17,CS(=O)(=O)N(CC(=O)NCCSCc1cccc(Cl)c1)c1ccccc1F,"inconclusive [inhibitor, single point]"
18,COc1ccc2c(Sc3ccc(C)cc3)c(C(=O)NCCc3ccccc3)[nH]c2c1,"inconclusive [inhibitor, partial curve]"
19,O=C(CSc1nc(-c2cccs2)nc2cc(=O)[nH]n12)Nc1cccc(C(F)(F)F)c1,inactive
20,Cc1cc(Br)cc2c1N(C)C(=O)C2(c1ccc(O)cc1)c1ccc(O)cc1,inactive
21,CC(C(=O)NC(C)(C)C)n1c(C(c2ccccc2)c2ccccc2)nc2ccccc21 (configuration not stated),"inconclusive [inhibitor, single point]"
22,Cc1ccc2c(c1)N(CC(=O)NCCc1c[nH]c3ccccc13)C(=O)CO2,inactive
23,COc1ccc2oc(C(=O)OCC(=O)/C(C#N)=C(\C)N)c(C)c2c1,inactive
24,Cc1ccccc1C(=O)N1CCC(C(=O)Nc2ccc(C)c(S(=O)(=O)N3CCCCC3)c2)CC1,active: 5.8 µM

row,SMILES,Potency
1,OCc1cnc(SCc2ccc(F)cc2)n1Cc1ccc(F)cc1,"inconclusive [inhibitor, single point]"
2,Cc1c(C)c2ccc(OCC(=O)Nc3ccc(CN4CCOCC4)cc3)cc2oc1=O,"inconclusive [inhibitor, single point]"
3,COc1cc(/C=C/c2nc(-c3ccccc3O)n[nH]2)cc(OC)c1OC,active: 14.6 µM
4,CCOc1ccc(C(=O)N(Cc2cc(OC)c(OC)c(OC)c2)c2ccccn2)cc1,active: 20.6 µM
5,CCOC(=O)N1CCN(C(=O)CSCc2ccc(Br)cc2)CC1,"inconclusive [inhibitor, partial curve]"
6,CN(C(=O)c1cc(COc2ccc(F)cc2Cl)on1)C1CCCc2ccccc21 (configuration not stated),"inconclusive [inhibitor, single point]"
7,Brc1ccc(C2=CC(c3cccs3)n3ncnc3N2)cc1 (configuration not stated),active: 7.31 µM
8,Cc1nn(C)c2c1c(C(F)(F)F)cc(=O)n2C(C)C(=O)NCCc1ccccc1 (configuration not stated),inactive
9,O=C(Nc1nc2n(n1)C(c1ccc(Cl)cc1)C=C(c1ccccc1)N2)c1ccco1 (configuration not stated),active: 20.6 µM
10,CCN(Cc1ccccc1)S(=O)(=O)c1cc(C(=O)OC)n(C)c1,"inconclusive [inhibitor, single point]"
11,CC(=O)c1ccc(S(=O)(=O)NCC(=O)NC(c2nc3ccccc3[nH]2)C(C)C)cc1 (configuration not stated),"inconclusive [inhibitor, single point]"
12,Cc1ccc(C2C(C#N)=C(N)Oc3cc(C)oc(=O)c32)o1 (configuration not stated),active: 18.4 µM
13,O=C(c1csnn1)N1CCC2(CCCN(c3ccccn3)C2)CC1,inactive
14,C=CCN(CC=C)c1nc2ccccc2nc1C(C#N)C(=O)OCCOC (configuration not stated),"inconclusive [inhibitor, single point]"
15,O=C(Cn1c(CC(=O)N2CCCC2)nc2ccccc21)NCc1ccccc1,inactive
16,CCOC(=O)C1=C(C)NC(=O)NC1c1cn(-c2ccccc2)nc1-c1ccc(OC(C)C)cc1 (configuration not stated),active: 16.4 µM
17,O=C(COc1ccccc1Cl)Nc1ccc(N2CCCC2)cc1,inactive
18,CC(=O)Nc1ccc(S(=O)(=O)NCC(=O)NNC(=O)c2csc(N3CCOCC3)n2)cc1,inactive
19,O=C(c1ccc(Cl)nc1)N1CCN(C/C=C/c2ccccc2)CC1,"inconclusive [inhibitor, single point]"
20,COc1ccc(CCn2c(O)cc3nn(-c4nc5ccccc5s4)c(=O)c-3c2C)cc1,active: 16.4 µM
21,Cc1cc(C)nc(/N=C2/NC(=O)CS2)n1,inactive
22,CC1CCOC2(O1)C(=O)N(CN1CCN(c3cccc(Cl)c3)CC1)c1ccccc12 (configuration not stated),"inconclusive [inhibitor, partial curve]"
23,O=C(CN1CCOc2ccccc21)NC1CCN(Cc2ccccc2)CC1,"inconclusive [inhibitor, partial curve]"

# — PubChem BioAssay AID686978 (National Center for Advancing Translational Sciences (NCATS), 2013)
